# According to PubChem BioAssay AID463173 (ICCB-Longwood Screening Facility, Harvard Medical School, 2010):
# The campaign covered roughly 52,000 compounds. About 4,300 (8.3%) were called active. No stated cut-off is given here; in the data, active means survival mostly below about 52% (no sharp cut-off); inactive means mostly above about 56%. This is one part of the list.
# Tested on: DeltatarO mutant
# Assay: growth inhibition of S. aureus wild type versus tarO mutant, primary screen, teichoic acid synthesis inhibitors, RN4220, OD600 (AID 463173)
# Conditions: OD600, 18 h, active compounds read low, screened at 18.75 µg/mL (by protocol)
row,SMILES,survival
1,CC(C)(C)C(=O)NC1CCNCC1,inactive: 105%
2,O=C1C2CCCC1C(c1ccc3c(c1)OCO3)NC2c1ccc2c(c1)OCO2 (configuration not stated),inactive: 58%
3,COC(=O)CNc1cn[nH]c(=O)n1,inactive: 92%
4,Cc1ccc(/C=C/c2onc(C)c2S(=O)(=O)N2CCC(C(=O)Nc3cc(C)ccc3C)CC2)cc1,inactive: 78%
5,COc1ccccc1CCNC(=O)C(=O)NCC(c1cccs1)S(=O)(=O)c1cccs1 (configuration not stated),inactive: 67%
6,COc1cccc(-c2noc(C3CC(=O)N(c4ccc(F)cc4)C3)n2)c1OC (configuration not stated),inactive: 92%
7,COc1ccccc1CNC(=O)c1cc2sccc2n1Cc1ccc(Cl)cc1,inactive: 78%
8,Cc1ccccc1NC(=O)CSc1nc2ccc(NC(=O)c3cccs3)cc2s1,inactive: 91%
9,CCc1ccc(NC(=O)CCn2c(=O)c3cccn3c3ccccc32)cc1,inactive: 48%
10,COc1ccc(NC(=O)CSc2ccc3nc(-c4ccccc4)cn3n2)c(OC)c1,inactive: 70%
11,Cc1ccc(NC(=O)c2ccc3[nH]c(C)cc(=O)c3c2)cc1,inactive: 75%
12,CSc1cccc(NC(=O)c2cccc(N3CCCS3(=O)=O)c2)c1,inactive: 115%
13,CCOc1ccc(OCC)c(Nc2ccc3cc(S(=O)(=O)N4CCCC4)ccc3n2)c1,inactive: 87%
14,CCC1CN(C(=O)N2CCC(C(=O)NCc3cccc(OC)c3OC)CC2)c2cc(C)ccc2O1 (configuration not stated),inactive: 78%
15,CCC1=Nc2cc(C(=O)NC3CCC(C)CC3)ccc2Sc2ccc(C)cc21 (configuration not stated),active: 39%
16,COc1ccccc1NC(=O)c1sc2nc(C)c(C(=O)Nc3ccc(C)cc3C)c(-c3ccco3)c2c1N,inactive: 61%
17,CC(C)c1ccc(NC(=O)c2ccc(F)c(S(=O)(=O)N3CCc4ccccc43)c2)cc1,inactive: 83%
18,CCC(C)NC(=O)CSc1nc2n[nH]c(C)c2c(=N)n1-c1cc(Cl)ccc1C (configuration not stated),inactive: 82%
19,O=C(C1CCCN(S(=O)(=O)c2cccc3nsnc23)C1)N1CCN(c2ccccc2F)CC1 (configuration not stated),inactive: 75%
20,O=C(O)Cn1cnc2ccccc2c1=O,inactive: 109%
21,COc1ccc(NC(=O)CCCN2C(=O)C(c3ccccc3)Oc3cccnc32)c(OC)c1 (configuration not stated),inactive: 81%
22,CCc1ccc2oc(C(=O)Nc3cccc(Cl)c3C)cc(=O)c2c1,inactive: 47%
23,CCCNC(=O)CSc1nnc(-c2cccnc2)n1C1CCCCC1,inactive: 104%

row,SMILES,survival
1,CC(C)CCN(Cc1ccco1)C(=O)c1cc2c(s1)-c1ccccc1OC2,active: -4%
2,CC1Cc2ccccc2N1C(=O)c1cc2n(n1)C(C(F)(F)F)CC(c1ccco1)N2 (configuration not stated),inactive: 99%
3,COc1cc(-c2nnc(SCCOc3ccc(Cl)cc3)o2)cc(OC)c1OC,inactive: 68%
4,O=C(COc1ccccc1)OCc1cc(=O)n2nc(C3CC3)sc2n1,inactive: 77%
5,COc1ccccc1N1CCN(C(=O)C2CCN(S(=O)(=O)Cc3ccccc3)CC2)CC1,inactive: 61%
6,CCC(Cc1ccccc1)NC(=O)CN1C(=O)COc2ccc(S(=O)(=O)N3CCCCCC3)cc21 (configuration not stated),inactive: 113%
7,Cc1cc2c(cc1NC(=O)c1ccccc1C)n(C)c(=O)c(=O)n2C,inactive: 81%
8,COc1ccc(CCNC(=O)CCCn2c(=O)c3cccn3c3ccccc32)cc1OC,inactive: 61%
9,CCOCCCNC(=O)C1CCN(C(=O)c2cc3sccc3n2C)CC1,inactive: 82%
10,CC(=O)N1CCc2c(sc3c2c(=O)n(Cc2ccccc2)c(=O)n3Cc2ccc(C)cc2)C1,inactive: 106%
11,COC(=O)c1ccc(Cn2cnc3nc4c(cc3c2=O)CCCC4)cc1,inactive: 89%
12,CC(=O)c1ccc(N2CCN(C(=O)C3CCN(S(=O)(=O)c4c(C)noc4/C=C/c4ccc(C)cc4)CC3)CC2)cc1,inactive: 79%
13,Cc1ccc(C(=O)c2c(N)c(-c3nc(-c4ccc5c(c4)OCO5)cs3)c3ccccn23)cc1C,inactive: 94%
14,CCCNC(=O)N1c2ccc(F)cc2CCC1C (configuration not stated),inactive: 87%
15,COCc1nn2cc(-c3ccc(C)cc3)nc2s1,inactive: 112%
16,O=C(Nc1nc2c(s1)CCCCCC2)Nc1ccc(F)cc1F,active: 0%
17,CCOc1ccc(NC2=NCCC(=O)N2Cc2cccs2)cc1,inactive: 83%
18,O=C1CSC(=O)N1CC(O)Cn1c2ccccc2c2ccccc21 (configuration not stated),inactive: 96%
19,COc1ccc(N2CCN(C(c3ccccc3)c3sc4nc(-c5ccco5)nn4c3O)CC2)cc1 (configuration not stated),inactive: 69%
20,Cc1ccc(C(=O)N2CCc3cc(CNS(=O)(=O)c4cccs4)ccc32)cc1,inactive: 80%
21,COc1ccc(-c2noc(CSc3nnc(C)n3-c3ccc(C)cc3)n2)cc1OC,inactive: 59%
22,CN1C(=O)Cc2cc(S(=O)(=O)NCCc3ccc(Cl)cc3)ccc21,inactive: 116%
23,CCN(CC)C(=O)Nc1ccc(I)cc1,inactive: 82%

row,SMILES,survival
1,CCOc1ccccc1CNC(=O)C1CCN(S(=O)(=O)c2ccc3[nH]c(=O)ccc3c2)CC1,active: 25%
2,Cc1nc(NCC2CCCO2)c2nnn(Cc3c(F)cccc3Cl)c2n1 (configuration not stated),inactive: 59%
3,CC1(C)CC(=O)c2cc(-c3ccccc3)n(CC(=O)O)c2C1,inactive: 93%
4,CCOc1ccccc1NC(=O)Cn1ncc2c(=O)oc3ccc(C)cc3c21,inactive: 94%
5,COc1ccccc1NC(=O)CSC1=Nc2ccccc2C2=NC(CCC(=O)NCCc3ccccc3)C(=O)N12 (configuration not stated),inactive: 102%
6,CCOC(=O)c1c(C)oc2ncnc(Nc3ccc(OC)cc3OC)c12,inactive: 97%
7,CC(C)c1ccc(NC(=O)c2ccc3c(c2)CCN3S(=O)(=O)c2ccccc2)cc1,active: 44%
8,Cc1cc2ncn(S(=O)(=O)N3CCOCC3)c2cc1C,inactive: 71%
9,O=C(Nc1nnc(S(=O)(=O)N2CCCc3ccccc32)s1)c1ccccc1Cl,active: 28%
10,CCN(CC)c1nc2n(c(=S)n1)CCS2,inactive: 103%
11,COc1ccccc1N1CCN(C(=O)c2cn(CC(C)C)c(=O)c3c2c2ccccc2n3C)CC1,inactive: 85%
12,O=C(Nc1ccc(O)c(-c2nc3ccccc3o2)c1)c1sc2ccccc2c1Cl,inactive: 105%
13,CCCC(=O)c1cc2c(cc1N)OCCO2,inactive: 95%
14,CCCOc1ccc(NC(=O)CC2C(=O)N(c3cccc(OC)c3)C(=O)N2Cc2cccs2)cc1 (configuration not stated),inactive: 95%
15,O=C(CSCc1cnn(-c2ccccc2)c1-n1cccc1)NCc1ccc(Cl)cc1,inactive: 79%
16,O=C(NC1CCCCC1NC(=O)c1ccco1)c1ccco1 (configuration not stated),inactive: 98%
17,Cc1cccc(C2C=C(c3ccc(C)c(C)c3)Nc3nnnn32)c1 (configuration not stated),active: 6%
18,Cc1nc2ccn(Cc3ccccc3)c(=O)c2cc1C(=O)N1CCN(c2ccccc2F)CC1,inactive: 85%
19,CCOc1ccccc1C(=O)NC1(C(F)(F)F)NC(=O)N(CCc2ccc(OC)c(OC)c2)C1=O (configuration not stated),inactive: 54%
20,COc1cc(OC)cc(-c2cc3nc(C)c(CCC(=O)NCc4ccccc4)c(C)n3n2)c1,inactive: 95%
21,COc1cccc(-c2cc(C(=O)N3CCN(c4ccccc4OC)CC3)no2)c1,active: -4%
22,COc1ccc(Cl)cc1NC(=O)Cc1coc2c(C)c(C)ccc12,inactive: 89%
23,CCc1ccc(NC(=O)c2sc3nc4c(cc3c2N)CN(CC)CC4)cc1,active: 49%

row,SMILES,survival
1,Cc1cc(C)c(NC(=O)CNC2CC(C)(C)NC(C)(C)C2)c(C)c1,inactive: 91%
2,O=C(CN1CCN(C(=O)N2CCCCC2)CC1)Nc1ccc(F)cc1,inactive: 70%
3,O=C(CSc1nnc(CNc2ccc(F)cc2)o1)N1CCOCC1,inactive: 119%
4,O=C(Nc1ccc(F)cc1)c1ccc(Cn2nc(N3CCN(c4ccccc4)CC3)ccc2=O)o1,inactive: 82%
5,COC(=O)c1ccc(NC(=O)CCc2c(C)nn(-c3ccc(N4CCOCC4)nn3)c2C)cc1,inactive: 78%
6,COc1ccc(CCNc2nc(-c3ccc(Cl)cc3)cc(C(F)(F)F)n2)cc1OC,active: 8%
7,CCOC(=O)c1c(C)[nH]c(C)c1S(=O)(=O)N1CCC(C(=O)N2CCN(c3cccc(C)c3C)CC2)CC1,inactive: 94%
8,CCc1cccc(NC(=O)Cn2c(=O)c(C(F)(F)F)nc3ccccc32)c1,inactive: 85%
9,Cc1coc2cc3oc(=O)c(CC(=O)N4CCCCC4)c(C)c3cc12,inactive: 85%
10,Cc1cccc(NC(=O)CN2C(=O)CSC2=O)c1,inactive: 98%
11,Cc1cccc(CSc2nc3cc(C(=O)NC4CCCC4)ccc3c(=O)n2Cc2ccccc2)c1,inactive: 69%
12,CCCN(CCC)CC(O)Cn1cc(/C=C/C(=O)c2ccc(OC)cc2)c2ccccc21 (configuration not stated),active: 11%
13,Cc1cc(C)c2c(=O)cc(C(=O)Nc3nc4ccc(F)cc4s3)oc2c1,inactive: 61%
14,Cc1cc(=O)oc2cc3c(cc12)OCCN3,inactive: 69%
15,CCC(CC)C(=O)Nc1c(C(=O)N2CCN(c3ccccc3)CC2)oc2ccccc12,inactive: 97%
16,Cc1cc2ncn(CCC(=O)NC(C)(C)C)c2cc1C,inactive: 95%
17,O=C(CN(c1ccc2c(c1)OCCO2)S(=O)(=O)c1ccccc1)N1CCCCCC1,inactive: 73%
18,CC1CCN(c2nc3c(-c4cccc(Br)c4)nnn3c3ccccc23)CC1,inactive: 104%
19,COc1ccc(OCCn2nnc3sc4c(c3c2=O)CCC(C(C)(C)C)C4)cc1 (configuration not stated),inactive: 107%
20,CCOc1ccc(-c2c(C)nn3c(C)c(C(=O)NCc4ccc(Cl)cc4)cnc23)cc1OCC,inactive: 119%
21,O=C(CCN1CCc2ccccc2C1)Nc1ccc(F)c(F)c1,inactive: 102%
22,CCC(NC(=O)Nc1cc(Cl)ccc1OC)c1c(-n2cccc2)sc2c1CCN(C)C2 (configuration not stated),inactive: 84%
23,CCCCCn1c(=O)[nH]c2cc(C(=O)NCCN(C)CCCC)ccc2c1=O,inactive: 66%
